Data from paper PMC12136788.
Some of the results follow.

T1: UNK ZnF1-3 (human, UniProt Q9C0B0 31-174)
T1 sequence: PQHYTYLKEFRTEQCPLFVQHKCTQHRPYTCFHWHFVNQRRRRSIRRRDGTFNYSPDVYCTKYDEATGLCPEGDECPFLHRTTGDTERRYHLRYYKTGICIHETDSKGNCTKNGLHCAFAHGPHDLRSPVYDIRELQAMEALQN

B1: chr1:220276048:220276049:+_ENSG00000067704_ENST00000302637|hu_hu|hu_hu_hu_mus_True|38_108 (ssRNA)
RNA: GGGAGUUCUACAGUCCGACGAUCGCAAACAGCUUCAUUGGCGGGAAUUGUCCAAGGCUGGGUGGUCCAAACUAAAACGCUAACAGGGGAUGAGGCAUCUAUAAGAGACUCCAACUUCGGAGGAGGUCUCAGGAGGGGGAAUCUCAACAGAGGAUUGAGCAUCA
B2: chr6:108246082:108246083:-_ENSG00000025796_ENST00000369002|hu_hu|FALSE|FALSE (ssRNA)
RNA: GGGAGUUCUACAGUCCGACGAUCUGUUUUGGAAACUUUAUAUGCAAGGAAUAAGAACAAUGCCCAUCCUGCAAGCAGAACUAUUUUCUUUACUGUAGGAAUAAUAUUUGGCUGGGGUUUUAAUAACCGUAAACGAUACCACAUCAACAGAGGAUUGAGCAUCA
B3: chr3:128198961:128198962:-_ENSG00000179348_ENST00000341105|hu_hu|FALSE|FALSE (ssRNA)
RNA: GGGAGUUCUACAGUCCGACGAUCACUGGACCCAAAAAGAGUUUAAAAAUAAAACAAUUAACUCAUCAGCGAGUUAAGCCUAUGCAUUUUUUUAAUAUUUUUUCUUUUGUCUCAGAGUAGGAGGCGAGGGGGUUGAAGGGUUAGCAACAGAGGAUUGAGCAUCA
B4: chr6:41757443:41757444:+_ENSG00000214736_ENST00000398881|hu_mus|hu_hu_hu_mus_False|28_58 (ssRNA)
RNA: GGGAGUUCUACAGUCCGACGAUCGAACCGUGCAGAGGCAACAUCUCAGCCGACACUGGGGGAUGGGGGGGCAGUGGGAAACUAGGCAGGCAAGGAGAGGGAGUCAACCCAUCUGAACACUCAGGUAGGAUCUUGUGGUCACAGCAACAGAGGAUUGAGCAUCA
B5: chr18:56819859:56819860:+_ENSG00000166562_ENST00000588875|hu_mus|hu_hu_hu_mus_True|68_108 (ssRNA)
RNA: GGGAGUUCUACAGUCCGACGAUCAACUUUGAUUACUCUGUGAACUAUCGGAAUGUCUCUUCCUUCAACUUUAAAAACAACUAUUUCACCAGCUCUGAUGGGGUCCUCCCGGAAAUUCGUGAGGAACAGCAGAUCUCCUCUGUGCAACAGAGGAUUGAGCAUCA
B6: 100370835_100370955_3204_3pUTR_ENSMUSG00000008763_ENSMUST00000008907|mouse|control|control (ssRNA)
RNA: GGGAGUUCUACAGUCCGACGAUCCAGCAGUUAUGAUAAAUACCAGGUUCAGCAUAUUAUAUGGAGACAACGACUUGAAAAAUAUUCUUCAUGAGAUCAUGCCCCUCAGAGAAAAACUCAAUCUAAACAGAUUUCAAUGCCUAGCAACAGAGGAUUGAGCAUCA
B7: chrX:71549400:71549401:+_ENSMUSG00000019087_ENSMUST00000019231|mus_hu|mus_mus_mus_hu_False|8_68 (ssRNA)
RNA: GGGAGUUCUACAGUCCGACGAUCGCAGUAGGAAGAGGGAAGCUCUUCAGUCCAGUGCGCUGCAGGGAGAAACAUGAACAACACGGACACCGUCCCACCCUCAACCCCCCCACUGGCACAGGGUCACAUCUGGGUCAUCAAAGACAACAGAGGAUUGAGCAUCA
B8: chr4:147104108:147104109:+_ENSG00000164167_ENST00000515311|hu_mus|FALSE|FALSE (ssRNA)
RNA: GGGAGUUCUACAGUCCGACGAUCCGAUAAUCCACGCCAGAAUUUAAUUUCACCACAACUGGCCGUCCGAUGAUCUGCUUUAAGAAGUCGCUAGGGGUUUGCUUCCGCAGGCUCAUGUUUAACAACCCUGAUUAGAAACGGGAACAACAGAGGAUUGAGCAUCA
B9: chr19:16212804:16212805:+_ENSG00000167460_ENST00000300933|hu_mus|hu_hu_hu_mus_False|58_98 (ssRNA)
RNA: GGGAGUUCUACAGUCCGACGAUCAACAAUUCUGGAGAAGAACAUCAAUGUAACAUGGAACAGCAUUAAAGCUCAGUAUUACUAUAUAUGGGCAACAAUGAUCACCCCAGCAUUCUCGCUUGGAAUGCUUAAAGACAAUCUGUUCAACAGAGGAUUGAGCAUCA
B10: chr10:61005148:61005149:+_ENSG00000165443_ENST00000486074|hu_hu|FALSE|FALSE (ssRNA)
RNA: GGGAGUUCUACAGUCCGACGAUCUGACAUCCUGGGCAUGGUGGUAAACCAGCACCCCAUCUUCUUCUGUACAGGUCAAAAAUUUAUUAUCCUUAGAAUUUAGUUGAGGAAGGCGCUGCUUACAAAAUUCAUCUCCUGGUGAUCCAACAGAGGAUUGAGCAUCA
B11: chr6:36694466:36694467:-_ENSMUSG00000029838_ENSMUST00000101534|mus_mus|FALSE|FALSE (ssRNA)
RNA: GGGAGUUCUACAGUCCGACGAUCCUCAGCAGUGUCCACAGCUGCCAAGAUGAAAAUCAAUGCCAGGAAGGCAGCUGCAAAUUUUCUACGUUGCUGCUGAUAUUGCUGGGACGACAUUUUUUGGCUUGCAGAGGUCCUCGCUGACAACAGAGGAUUGAGCAUCA
B12: chr17:13112271:13112272:+_ENSMUSG00000068039_ENSMUST00000151287|mus_hu|FALSE|FALSE (ssRNA)
RNA: GGGAGUUCUACAGUCCGACGAUCAAUUAGGUUUUCAUUGAUAUAACGCACUGCUUCCUUGCAAGCAAGUCGAUAGCCACUAAUAACUGAUGUGGGAUGAAUUUUCUGUUUGACUAAUUCAUCUGCAUUUUUUAGGAGUUCUGCCAACAGAGGAUUGAGCAUCA
B13: 186332082_186332542_819_CDS_ENSG00000047410_ENST00000367478|human|control|control (ssRNA)
RNA: GGGAGUUCUACAGUCCGACGAUCAUUCUGACUAUGUAGCAAUUCCUUUUCUUGCUCCAAGCGUUUUUCUCGAUACUUAACAGAAACAUCAGAAGCUUGAAGUUCAUCCAAUUUUAACUGAAGUUCACCCUUUGUUGUAUUGCUCAACAGAGGAUUGAGCAUCA
B14: 135892894_135896144_2817_CDS_ENSMUSG00000039959_ENSMUST00000060311|mouse|control|control (ssRNA)
RNA: GGGAGUUCUACAGUCCGACGAUCGGCCUGGUUCACUCCUCGAGAGGCCUGCUGCAGCUGGGUCAGAUUGAGGCUGCCCUUGUUCGCUUUCACCUUGGAUGCAGCCACGAGCUGGGCAGUACUGGCAGCAAUCUCGCGUGAACACAACAGAGGAUUGAGCAUCA

What follows are binders tested against T1, UNK ZnF1-3 (assay: nsRBNS (natural sequence RNA bind-n-seq); RBNS binding buffer (assumed for nsRBNS): 25 mM Tris pH 7.5, 150 mM KCl, 3 mM MgCl2, 0.01% Triton X-100, 500 ug/ml BSA, 20 U/ml SUPERase-In, 4 C; UNK is unkempt and MSI1 is Musashi-1; names of the RNAs are library labels; protein concentration not given here; high values mean tight binding).

Binder	binding signal [enrichment R]
B1	2.31
B2	0.69
B3	1.61
B4	2.22
B5	0.655
B6	1.35
B7	1.66
B8	1.12
B9	1.02
B10	1.36
B11	0.8
B12	0.502
B13	0.584
B14	0.814
